Measurements reported in paper PMC9911399, “Two distinct binding modes provide the RNA-binding protein RbFox with extraordinary sequence specificity”.
Where a chain is given by its changes, count along the chain named. The list shows a part of the results.

T1: RBFOX1 RRM RbFoxmut (Fox-RRM*) (Homo sapiens, UniProt Q9NWB1 109-208, R118D;E147R;N151S;E152T)
T1 sequence: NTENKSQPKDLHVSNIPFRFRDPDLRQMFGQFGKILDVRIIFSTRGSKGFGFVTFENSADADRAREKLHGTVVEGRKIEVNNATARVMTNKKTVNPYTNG

B1: AUCUGCC (DNA:RNA)
RNA: GGGAGACCGGAAUUCAGAUUGUCCAUCUGCCUUAAAUCCCGUCGUAGCCACCA
DNA 1: CAATCTGAATTCCGGTCTCCC
DNA 2: TGGTGGCTACGACGGGATT
B2: ACAUUUG (DNA:RNA)
RNA: B1 RNA with U26C, C27A, G29U, C30U, C31G
DNA 1: CAATCTGAATTCCGGTCTCCC
DNA 2: TGGTGGCTACGACGGGATT
B3: CUUCUUA (DNA:RNA)
RNA: B1 RNA with A25C, C27U, U28C, G29U, C30U, C31A
DNA 1: CAATCTGAATTCCGGTCTCCC
DNA 2: TGGTGGCTACGACGGGATT
B4: UGUAAAA (DNA:RNA)
RNA: GGGAGACCGGAAUUCAGAUUGUCCUGUAAAAUUAAAUCCCGUCGUAGCCACCA
DNA 1: CAATCTGAATTCCGGTCTCCC
DNA 2: TGGTGGCTACGACGGGATT
B5: UCUCGAG (DNA:RNA)
RNA: B4 RNA with G26C, A28C, A29G, A31G
DNA 1: CAATCTGAATTCCGGTCTCCC
DNA 2: TGGTGGCTACGACGGGATT
B6: GGUUUCU (DNA:RNA)
RNA: B1 RNA with A25G, U26G, C27U, G29U, C31U
DNA 1: CAATCTGAATTCCGGTCTCCC
DNA 2: TGGTGGCTACGACGGGATT
B7: CGAUCAC (DNA:RNA)
RNA: B1 RNA with A25C, U26G, C27A, G29C, C30A
DNA 1: CAATCTGAATTCCGGTCTCCC
DNA 2: TGGTGGCTACGACGGGATT
B8: UCUGAUG (DNA:RNA)
RNA: B4 RNA with G26C, A28G, A30U, A31G
DNA 1: CAATCTGAATTCCGGTCTCCC
DNA 2: TGGTGGCTACGACGGGATT
B9: GCGGUGA (DNA:RNA)
RNA: B4 RNA with U25G, G26C, U27G, A28G, A29U, A30G
DNA 1: CAATCTGAATTCCGGTCTCCC
DNA 2: TGGTGGCTACGACGGGATT
B10: GUCGUGU (DNA:RNA)
RNA: B1 RNA with A25G, U28G, G29U, C30G, C31U
DNA 1: CAATCTGAATTCCGGTCTCCC
DNA 2: TGGTGGCTACGACGGGATT
B11: UGGGUCU (DNA:RNA)
RNA: B4 RNA with U27G, A28G, A29U, A30C, A31U
DNA 1: CAATCTGAATTCCGGTCTCCC
DNA 2: TGGTGGCTACGACGGGATT
B12: AUUUAUA (DNA:RNA)
RNA: B1 RNA with C27U, G29A, C30U, C31A
DNA 1: CAATCTGAATTCCGGTCTCCC
DNA 2: TGGTGGCTACGACGGGATT
B13: AUUACCG (DNA:RNA)
RNA: B1 RNA with C27U, U28A, G29C, C31G
DNA 1: CAATCTGAATTCCGGTCTCCC
DNA 2: TGGTGGCTACGACGGGATT
B14: UAUGGGU (DNA:RNA)
RNA: B4 RNA with G26A, A28G, A29G, A30G, A31U
DNA 1: CAATCTGAATTCCGGTCTCCC
DNA 2: TGGTGGCTACGACGGGATT
B15: GAACUCU (DNA:RNA)
RNA: B1 RNA with A25G, U26A, C27A, U28C, G29U, C31U
DNA 1: CAATCTGAATTCCGGTCTCCC
DNA 2: TGGTGGCTACGACGGGATT
B16: GUCAGUG (DNA:RNA)
RNA: B1 RNA with A25G, U28A, C30U, C31G
DNA 1: CAATCTGAATTCCGGTCTCCC
DNA 2: TGGTGGCTACGACGGGATT
B17: ACGCGAU (DNA:RNA)
RNA: B1 RNA with U26C, C27G, U28C, C30A, C31U
DNA 1: CAATCTGAATTCCGGTCTCCC
DNA 2: TGGTGGCTACGACGGGATT
B18: GUUUGGA (DNA:RNA)
RNA: B1 RNA with A25G, C27U, C30G, C31A
DNA 1: CAATCTGAATTCCGGTCTCCC
DNA 2: TGGTGGCTACGACGGGATT
B19: UGCAGAG (DNA:RNA)
RNA: B4 RNA with U27C, A29G, A31G
DNA 1: CAATCTGAATTCCGGTCTCCC
DNA 2: TGGTGGCTACGACGGGATT
B20: CCGGUUA (DNA:RNA)
RNA: B4 RNA with U25C, G26C, U27G, A28G, A29U, A30U
DNA 1: CAATCTGAATTCCGGTCTCCC
DNA 2: TGGTGGCTACGACGGGATT
B21: AGUCGGU (DNA:RNA)
RNA: B1 RNA with U26G, C27U, U28C, C30G, C31U
DNA 1: CAATCTGAATTCCGGTCTCCC
DNA 2: TGGTGGCTACGACGGGATT
B22: GACCGGU (DNA:RNA)
RNA: B1 RNA with A25G, U26A, U28C, C30G, C31U
DNA 1: CAATCTGAATTCCGGTCTCCC
DNA 2: TGGTGGCTACGACGGGATT
B23: ACCGGAC (DNA:RNA)
RNA: B1 RNA with U26C, U28G, C30A
DNA 1: CAATCTGAATTCCGGTCTCCC
DNA 2: TGGTGGCTACGACGGGATT
B24: GUAGCUA (DNA:RNA)
RNA: B1 RNA with A25G, C27A, U28G, G29C, C30U, C31A
DNA 1: CAATCTGAATTCCGGTCTCCC
DNA 2: TGGTGGCTACGACGGGATT
B25: UAGAUUG (DNA:RNA)
RNA: B4 RNA with G26A, U27G, A29U, A30U, A31G
DNA 1: CAATCTGAATTCCGGTCTCCC
DNA 2: TGGTGGCTACGACGGGATT
B26: GUACCAC (DNA:RNA)
RNA: B1 RNA with A25G, C27A, U28C, G29C, C30A
DNA 1: CAATCTGAATTCCGGTCTCCC
DNA 2: TGGTGGCTACGACGGGATT
B27: UAACCUG (DNA:RNA)
RNA: B4 RNA with G26A, U27A, A28C, A29C, A30U, A31G
DNA 1: CAATCTGAATTCCGGTCTCCC
DNA 2: TGGTGGCTACGACGGGATT
B28: UAGCAAG (DNA:RNA)
RNA: B4 RNA with G26A, U27G, A28C, A31G
DNA 1: CAATCTGAATTCCGGTCTCCC
DNA 2: TGGTGGCTACGACGGGATT
B29: ACGUUGC (DNA:RNA)
RNA: B1 RNA with U26C, C27G, G29U, C30G
DNA 1: CAATCTGAATTCCGGTCTCCC
DNA 2: TGGTGGCTACGACGGGATT
B30: AGGCUCU (DNA:RNA)
RNA: B1 RNA with U26G, C27G, U28C, G29U, C31U
DNA 1: CAATCTGAATTCCGGTCTCCC
DNA 2: TGGTGGCTACGACGGGATT
B31: AACCCUA (DNA:RNA)
RNA: B1 RNA with U26A, U28C, G29C, C30U, C31A
DNA 1: CAATCTGAATTCCGGTCTCCC
DNA 2: TGGTGGCTACGACGGGATT

These binders were tested against T1, RBFOX1 RRM RbFoxmut (Fox-RRM*) (assay: EMSA; HiTS-Eq, 1 nM pool, 10 min; buffer printed only for the single-RNA assays: 10 mM Tris pH 7.5, 150 mM NaCl, 3.4 mM EDTA, 0.001% NP-40, 30 C). Conditions: tags: His6 N-terminal (pET28a); label: 5' 32P.
Procedure, shortened: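 Purified wild-type or mutant RbFox RRM at increasing concentrations was equilibrated with 1 nM of 5′-radiolabelled RNA carrying 7 randomized nucleotides for 10 min in 50 µL. Unbound RNA was separated by 8% native PAGE and sequenced. Relative association constants came from read-count changes of each RNA species compared with the control reaction, normalised to the cognate motif.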

Binder	binding signal
B1	0.191 KA relative to UGCAUGU
B2	0.0885 KA relative to UGCAUGU
B3	0.114 KA relative to UGCAUGU
B4	0.0891 KA relative to UGCAUGU
B5	0.128 KA relative to UGCAUGU
B6	0.138 KA relative to UGCAUGU
B7	0.0607 KA relative to UGCAUGU
B8	0.116 KA relative to UGCAUGU
B9	0.125 KA relative to UGCAUGU
B10	0.187 KA relative to UGCAUGU
B11	0.118 KA relative to UGCAUGU
B12	0.169 KA relative to UGCAUGU
B13	0.115 KA relative to UGCAUGU
B14	0.108 KA relative to UGCAUGU
B15	0.053 KA relative to UGCAUGU
B16	0.133 KA relative to UGCAUGU

Binder	binding signal
B17	0.0702 KA relative to UGCAUGU
B18	0.0824 KA relative to UGCAUGU
B19	0.126 KA relative to UGCAUGU
B20	0.081 KA relative to UGCAUGU
B21	0.105 KA relative to UGCAUGU
B22	0.0702 KA relative to UGCAUGU
B23	0.0839 KA relative to UGCAUGU
B24	0.127 KA relative to UGCAUGU
B25	0.194 KA relative to UGCAUGU
B26	0.0859 KA relative to UGCAUGU
B27	0.0476 KA relative to UGCAUGU
B28	0.0837 KA relative to UGCAUGU
B29	0.151 KA relative to UGCAUGU
B30	0.0577 KA relative to UGCAUGU
B31	0.0958 KA relative to UGCAUGU
